Screen size: about 360,000 compounds; about 17,000 (4.7%) were called active. Inconclusive means that the source gave no clear call. Such entries were picked first, then a sample of the others. Rule as the data show it: active = activity change below about -50%; inconclusive = mostly about -30% to -49%; inactive = weaker than that.
Experiment: qHTS for Inhibitors of Inflammasome Signaling: IL-1-beta AlphaLISA Primary Screen
Conditions: THP-1 LPS/ATP IL-1B secretion, 16 h; at 57.5 µM, active compounds read low
How it was run: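 THP-1 cells pretreated 1 hr with compounds (up to 57.5 uM final), then stimulated with LPS (250 ng/mL final) plus ATP (1.25 mM final); secreted IL-1B measured by AlphaLISA after 16 hr, decreased signal indicating inhibition.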
% is scaled to controls: 0 for no effect and ±100 for the full control effect.

| SMILES | activity change |
| --- | --- |
| COCCNC(=O)CCc1c(C)nc2nc(-c3cc(OC)cc(OC)c3)nn2c1C | inactive: 79.2% |
| COc1cccc2c1OCC(C(=O)OCc1cccnc1)=C2 | active: -52.6% |
| O=C(NNC(=O)c1ccc2ccccc2c1)c1cccc(Br)c1 | inconclusive: -31.8% |
| COc1ccc2cc3c(N)nn(C(=O)C4CCC(C(C)(C)C)CC4)c3nc2c1 (stereo not given) | active: -86% |
| O=C1Nc2c(ccc(Cl)c2Cl)C(=O)C1(F)c1ccccc1 (stereo not given) | active: -98.9% |
| Cc1cccc(NC(=O)CNC(=O)Cn2ncc(Cl)c(Cl)c2=O)c1C | active: -100% |
| O=C(c1ccc(S(=O)(=O)N2CCCCC2)cc1)N1CCCC(C(F)(F)F)C1 (stereo not given) | inactive: 7.9% |
| Cc1ccccc1OCCC(=O)Nc1ccc(F)c(Cl)c1 | active: -60.6% |
| CCc1ccc2[nH]c3nc(SCC(=O)NNC(=O)c4ccc(C(C)(C)C)cc4)nnc3c2c1 | active: -59.1% |
| Cc1ccc(-c2cc(C(F)F)n3ncc(C(=O)N4CCN5CCCC5C4)c3n2)cc1 (stereo not given) | inconclusive: -40.1% |
| CCN(CC)CCNc1nc(-c2ccc(OC)cc2)c(-c2ccc(OC)cc2)s1 | inconclusive: -48.3% |
| COc1ccc(S(=O)(=O)N(CC(=O)NCC2CCCO2)c2ccc(Cl)cc2)cc1 (stereo not given) | inconclusive: -37.9% |
| CCOC(=O)C1=C(c2ccc(OC)cc2)C(=O)c2ccccc2C1=O | active: -99% |
| CCCCNC(=O)CNC(=S)N(Cc1ccccc1)Cc1cccs1 | inconclusive: -44.2% |
| C/C(=N\Nc1ncc(Cl)cc1Cl)c1ccccn1 | inactive: 0% |
| O=C(Nc1ccc(Cl)cn1)c1ccc(Oc2ccccc2)cc1 | active: -67% |
| CCN(CCNC(=O)C1CCCN(c2ncnc3c2nc2n3CCCCC2)C1)Cc1ccccc1 (stereo not given) | inactive: -1.14% |
| CCOC(=O)C1=CCC(c2ccc(CC)cc2)N(S(=O)(=O)c2ccc(C)cc2)C1 (stereo not given) | inactive: 47.4% |
| O=C1CCCc2c1cc(C(=O)NCc1ccco1)c(=O)n2-c1ccc(Cl)cc1 | inactive: 14.6% |
| Cc1ccc(NC2=CC(=O)C(=O)c3ccccc32)cc1 | active: -93.2% |
| Cc1[nH]c2ccc(C(=O)OCC(=O)NC3(C#N)CCCCC3)cc2c1C | inconclusive: -32.7% |
| NC(=O)[C@H]1CC2(CC(c3cccc(NC(=O)COc4ccc(Cl)cc4)c3)=NO2)CN1C(=O)c1ccccc1C(=O)c1ccccc1 (stereo not given in full) | inconclusive: -39.8% |
| Cc1ccc2[nH]cc(CCCN3C(=O)c4ccccc4C3=O)c2c1 | inconclusive: -33.1% |
| CN(C)C1=NC[C@H](Cc2ccccc2)N1CCCC1CCCC1 | inconclusive: -32.7% |
| Cc1nn(Cc2ccc(Cl)cc2)c(C)c1NC(=O)c1cc(C(C)C)on1 | inactive: 13.3% |
| O=C(N1CCN(c2ccc(F)cc2)CC1)C1(c2cccs2)CCOCC1 | inactive: -12.9% |
| CS(=O)(=O)c1sc(C#N)c2c1C(=O)CC(c1ccccc1)C2 (stereo not given) | active: -113% |
| Cc1ccc(-c2c[n+]3c(n2-c2ccccc2)CCC3)cc1 | active: -52.8% |

| SMILES | activity change |
| --- | --- |
| COc1cc(C2Nc3cccc4cccc(c34)N2)cc(OC)c1O | active: -90.2% |
| CC12CCC(=O)N1C(C(=O)NCCN1C(=O)S/C(=C\c3ccc(OC(F)F)cc3)C1=O)CS2 (stereo not given) | inconclusive: -32.2% |
| CCCC1O[C@@H]2C[C@H]3[C@@H]4CCC5=CC(=O)C=C[C@]5(C)[C@H]4[C@@H](O)C[C@]3(C)[C@]2(C(=O)CO)O1 (stereo not given in full) | active: -65% |
| COc1cc(C(=O)NC2CCN(C)CC2)ccc1Nc1ncc2c(n1)N(CCc1ccccc1)CCC(=O)N2C | inactive: -4.53% |
| CCCCCCCOC(=O)C[N+](C)(C)CCOC1CC2CCC1(C)C2(C)C (stereo not given) | active: -99.6% |
| CCNC(=O)C1CCCN(C(=O)c2ccccc2F)CC1 (stereo not given) | inactive: 19.8% |
| COc1ccc(-n2cc(CNCCc3cnc[nH]3)c(-c3cccc(F)c3)n2)cc1 | inconclusive: -35% |
| COc1cccc(NC(=O)CSc2nc3c(sc4ccccc43)c(=O)n2CCN(C)C)c1 | active: -108% |
| O=S(=O)(c1ccccc1)N1N=C(c2cccs2)CC1c1cccc(O)c1 (stereo not given) | inconclusive: -33.5% |
| COc1ccccc1N1CCN(C(c2cc3ccc(C)cc3[nH]c2=O)c2nnnn2C2CCCC2)CC1 (stereo not given) | inconclusive: -32.8% |
| CC(/C=C/c1ccc(OCc2ccccc2)cc1)=N\O | inconclusive: -35.5% |
| COc1cccc(NC(=O)CCC2CCN(C(=O)Cc3cccc(F)c3)CC2)c1 | inactive: 1.62% |
| N#Cc1cc([N+](=O)[O-])ccc1NC(=O)CSc1n[nH]c(=O)n1C1CC1 | inactive: -6.5% |
| O=C(CN(c1ccc(F)cc1)S(=O)(=O)c1ccc2c(c1)OCCO2)NCc1ccccn1 | inconclusive: -30.4% |
| N#CC1=C(SCc2ccccc2)NC(=O)CC1c1ccccc1 (stereo not given) | inconclusive: -40.6% |
| CC(NC(=O)C1CCN(S(=O)(=O)c2ccc(Br)s2)CC1)c1ccccc1 (stereo not given) | inconclusive: -32.3% |
| O=C1C2CC=CCC2C(=O)N1c1ccc(Cc2ccncc2)cc1 (stereo not given) | inconclusive: -47.6% |
| CC1(C)Cc2c(sc(NC(=O)c3ccc4ncsc4c3)c2C(N)=O)C(C)(C)N1 | active: -215% |
| Cc1cccc2cc(CN(Cc3ccco3)C(=O)NC3CCCCC3)c(=O)[nH]c12 | inconclusive: -39.5% |
| Cc1cc(OC(=O)c2c(Cl)cc(Cl)cc2Cl)nc(C)n1 | inconclusive: -34.6% |
| O=C(NCC(c1ccc(F)cc1)N1CCOCC1)c1cccc(Br)c1 (stereo not given) | inconclusive: -32.2% |
| CCC(NC(=O)Nc1nccs1)(C(F)(F)F)C(F)(F)F | inactive: 99.2% |
| CCc1ccc2nc(Nc3nc(COC)cc(=O)[nH]3)nc(C)c2c1 | inconclusive: -50% |
| Cc1ccc2c(c1)N(CCCC(=O)NCC1COc3ccccc3O1)C(=O)CO2 (stereo not given) | inactive: -10% |
| O=C1NC(CCc2ccccc2)C(=O)N1Cc1cccc2ccccc12 (stereo not given) | inconclusive: -40.9% |
| COc1ccc(C(O)c2ncc(-c3cccc(C(F)(F)F)c3)[nH]2)cc1F (stereo not given) | inactive: -24.7% |
| O=C(Nc1ccc(F)cc1)N(Cc1ccco1)Cc1cc2cc3c(cc2[nH]c1=O)OCO3 | inconclusive: -41.4% |
